The values that follow come from PMC4429025, “Characterization of Mutants of Human Small Heat Shock Protein HspB1 Carrying Replacements in the N-Terminal Domain and Associated with Hereditary Motor Neuron Diseases” (PLoS ONE, 2015).

Sequences of proteins named here, by UniProt entry; tags and fusion partners are left off. A change or cut given only in a name is not applied to a line headed by its entry.
UniProt P04792: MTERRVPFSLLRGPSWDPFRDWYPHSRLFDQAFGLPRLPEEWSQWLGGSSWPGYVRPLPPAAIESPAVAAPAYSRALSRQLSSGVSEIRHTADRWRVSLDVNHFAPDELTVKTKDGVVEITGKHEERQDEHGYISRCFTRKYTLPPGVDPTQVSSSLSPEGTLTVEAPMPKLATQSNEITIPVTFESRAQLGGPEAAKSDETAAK

Assay [1] has as its target T1, wild type HspB6 (human) (UniProt O14558).
T1 sequence: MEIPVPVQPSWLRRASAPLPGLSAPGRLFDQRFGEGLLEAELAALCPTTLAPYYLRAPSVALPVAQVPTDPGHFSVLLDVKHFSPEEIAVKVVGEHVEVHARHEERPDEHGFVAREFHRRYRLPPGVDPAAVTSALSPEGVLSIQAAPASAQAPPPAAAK
Nature of the assay: condition: only mixture preincubated 1 h on ice (4°C) instead of 42°C; 0.5 mg/ml each; SEC; reduced HspB1 and HspB6 mixed in buffer S at 0.5 mg/ml each, incubated 1 h on ice (4°C), run on Superdex 200 HR 10/30 at room temperature; both purified.

Assay [2] has as its target T1, wild type HspB6 (human). Put plainly: SEC; reduced HspB1 and HspB6 mixed in buffer S at 0.5 mg/ml each, incubated 1 h at 42°C, run on Superdex 200 HR 10/30 at room temperature; fractions analysed by SDS PAGE; both purified. A general note: In gel filtration, larger molecules generally elute earlier.

No constants are given. Whether binding was seen depends on the method and setting. Some results given as binding are weak or reduced against the parent protein; the word gives no strength.

As to “E41K mutant of HspB1 (from UniProt P04792 1-205)”, the binding result in assay [1] is listed as “no binding”; in assay [2], “binds”.
As to “G34R mutant of HspB1 (from UniProt P04792 1-205)”, the results for the binding entry in assay [1] and in assay [2] were “no binding” and “binds”, respectively.
Regarding “P39L mutant of HspB1 (from UniProt P04792 1-205)”, the values for the binding entry in assay [1] and in assay [2] were “no binding” and “binds”, respectively.
In the case of “wild type HspB1 (human small heat shock protein HspB1) (from UniProt P04792 1-205)”, the binding entry in assay [1] was “no binding”; in assay [2], “binds”.
